From the supplement of paper PMC5655136
These are enrichments in a pooled selection; single values are uncertain.

Test system: NB7
Experiment: fold depletion of shRNA, plasmid library share / infected cells without Dox share (9 days) (ratio); higher = more depleted after infection (more toxic, leaky expression from a Tet-inducible vector; NB7 is a neuroblastoma line without caspase-8)
Description: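 Pooled lethality screen in NB7 neuroblastoma cells infected with Dox-inducible pTIP shRNA libraries. The libraries tile every 21-mer of the Venus, CD95L or CD95 ORF / 3'UTR; each hairpin is the 21-nt sense sequence + CTCGAG loop + antisense. Cells were cultured 9 days with or without 100 ng/ml Dox. shRNA representation was measured by deep sequencing of the genomic inserts, normalised to the total reads per subpool and averaged over technical replicates. Fold depletion is the plasmid library share / infected cells without Dox share (mean of 2 biological replicates), and the -Dox/+Dox share ratio is the mean of 4 replicate pairings; higher values mean more depletion (toxicity).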

[1] = shRNA pool: CD95L ORF + CD95L 3'UTR + Venus libraries
[2] = shRNA pool: CD95 ORF + CD95 3'UTR + Venus libraries
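Also: shRNA barcodes quantified by deep sequencing of PCR amplicons from cellular DNA, counts expressed as percent of each subpool, ratio averaged over two biological duplicates.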

Row | Sequence | fold depletion of shRNA [1] | fold depletion of shRNA [2]
1 | ATATTCCAAAGTATACTTCCG | 0.718 | –
2 | ATATTGTGAAGTACATATTAG | 0.677 | –
3 | ATATTTATATTTCTGTAAATG | – | 1.73
4 | ATATTTATGTAAAGTATATGT | – | 0.762
5 | ATATTTATGTAGATGTGCATT | 0.95 | –
6 | ATATTTCAATTGTGAATTCAC | – | 0.859
7 | ATATTTCTAAACTTTGTTTAT | – | 0.968
8 | ATATTTCTGTAAATGTAAACT | – | 0.928
9 | ATATTTGTAGATTTTTAATAT | – | 1.07
10 | ATCAAAAGCATTTTGAGCAGG | – | 1.4
11 | ATCAAAGATGATAAAATAGAT | – | 0.971
12 | ATCAACTCCAAGGGATTGGAA | – | 0.97
13 | ATCAACTCTAATAGTGCTTAA | 0.562 | –
14 | ATCAACTTCATGGAAAGAAAG | – | 0.734
15 | ATCAAGAATGACAATGTCCAA | – | 1.13
16 | ATCAAGAGTAAATGCAGTGGC | – | 3.98
17 | ATCAAGGAATGCACACTCACC | – | 1.17
18 | ATCAAGGCCAACTTCAAGATC | – | 0.898
19 | ATCAATAGAAGAAGCTATGAC | – | 1.18
20 | ATCAATGAAACTGGGCTGTAC | 4.61 | –
21 | ATCACATGGTCCTGCTGGAGT | 3.07 | 1.99
22 | ATCACCAAAAAATACTTAATA | – | 0.879

Row | Sequence | fold depletion of shRNA [1] | fold depletion of shRNA [2]
23 | ATCACCACTATTGCTGGAGTC | – | 1.75
24 | ATCACCGCCGACAAGCAGAAG | 2.75 | 1.12
25 | ATCACTCTCGGCATGGACGAG | 1.07 | 1.45
26 | ATCAGTGTATGTTAGTACAAA | – | 0.959
27 | ATCATATTTATGTAAAGTATA | – | 1.01
28 | ATCATCAAGGAATGCACACTC | – | 1.18
29 | ATCATCATCTGGATTTAGGAA | – | 1.23
30 | ATCATCCTCAAGGACATTACT | – | 1.4
31 | ATCATCTGGATTTAGGAATTG | – | 1.23
32 | ATCATCTTTGGAGAAGCAAAT | 0.662 | –
33 | ATCATGATGGCCAATTCTGCC | – | 1.87
34 | ATCATTGATTGTCAGCTACTA | 1.16 | –
35 | ATCATTTATATGTCAACGTAT | 0.739 | –
36 | ATCCACAGGCTAACCCCACTC | – | 2.31
37 | ATCCCCAGATCTACTGGGTGG | 1.04 | –
38 | ATCCGCCACAACATCGAGGAC | 1.45 | 1.03
39 | ATCCTACGTTTAAATATCTTT | – | 0.852
40 | ATCCTCAAGGACATTACTAGT | – | 1.19
41 | ATCCTGAAACAGTGGCAATAA | – | 1.03
42 | ATCCTGAGCCATCGGTGAAAC | 1.23 | –
43 | ATCCTGGGGCACAAGCTGGAG | 0.415 | 0.557
44 | ATCCTGGTCGAGCTGGACGGC | 1.39 | 1.29

Row | Sequence | fold depletion of shRNA [1] | fold depletion of shRNA [2]
45 | ATCGACTTCAAGGAGGACGGC | 0.862 | 1
46 | ATCGAGCTGAAGGGCATCGAC | 0.915 | 0.977
47 | ATCGGCGACGGCCCCGTGCTG | 0.614 | 0.818
48 | ATCGGTGAAACTAACAGATAA | 0.712 | –
49 | ATCGTCCAAAAGTGTTAATGC | – | 2.97
50 | ATCTAACATATGATTCTGTAG | – | 1.52
51 | ATCTAACTTGGGGTGGCTTTG | – | 1.29
52 | ATCTACTGGGTGGACAGCAGT | 0.794 | –
53 | ATCTAGTTGGGAAAACAAACT | – | 1.42
54 | ATCTCAAAAAAGCCAATCTTT | – | 0.707
55 | ATCTCAGACGTTTTTCGGCTT | 3.41 | –
56 | ATCTCATGATTCTGCCTCCAA | – | 1.35
57 | ATCTCCAACTTTAAATCCTGA | – | 1.1
58 | ATCTGAGCTCTCTCTGGTCAA | 0.647 | –
59 | ATCTGATGTTGACTTGAGTAA | – | 1.01
60 | ATCTGCACCACCGGCAAGCTG | – | 2.45
61 | ATCTGGACCCTCCTACCTCTG | – | 1.98
62 | ATCTGGATTTAGGAATTGCTC | – | 7.35
63 | ATCTGGTGATGATGGAGGGGA | 1.99 | –
64 | ATCTTAATGGCCTAATGCACC | – | 1.39
65 | ATCTTACCAGTGCTGATCATT | 1.33 | –
66 | ATCTTAGTGCCTGAGAGTATT | 0.924 | –

Row | Sequence | fold depletion of shRNA [1] | fold depletion of shRNA [2]
67 | ATCTTCACTTCTAAATGCATA | 0.958 | –
68 | ATCTTCTTCAAGGACGACGGC | 2.01 | 1.53
69 | ATCTTGCAACAACCTGCCCCT | 1.04 | –
70 | ATCTTTGAAAGTTTGTATTAA | – | 0.637
71 | ATCTTTGGAGAAGCAAATAGG | 1.01 | –
72 | ATCTTTGTACTCTTGCAGAGA | – | 0.815
73 | ATGAAAAAGCAGCTACCAGGT | 0.672 | –
74 | ATGAAAACATGTAATAAAAAG | 0.671 | –
75 | ATGAAACTGGGCTGTACTTTG | 0.689 | –
76 | ATGAAAGATTAAGATTATGCT | – | 0.875
77 | ATGAAATCCAAAGCTTGGTCT | – | 1.74
78 | ATGAACCAAGTGGACCTTGAG | 44.8 | –
79 | ATGAACCAGACTGCGTGCCCT | – | 0.878
80 | ATGAAGCAGCACGACTTCTTC | – | 4.02
81 | ATGAAGCCAAAATAGATGAGA | – | 1.92
82 | ATGAAGGACATGGCTTAGAAG | – | 1.23
83 | ATGAATCAATAGAAGAAGCTA | – | 0.849
84 | ATGAATCTCCAACTTTAAATC | – | 0.725
85 | ATGAATGTAATCAGTGTATGT | – | 0.707
86 | ATGACAATGTCCAAGACACAG | – | 1.01
87 | ATGACACATTGATTAAAGATC | – | 1.51
88 | ATGACACTAAGTCAAGTTAAA | – | 0.977

Row | Sequence | fold depletion of shRNA [1] | fold depletion of shRNA [2]
89 | ATGACCTTTTGCTGAAATATC | – | 1.58
90 | ATGACGGAAGAACATAGAACT | 0.59 | –
91 | ATGACTAAAGAGAGAATGTAG | 0.798 | –
92 | ATGAGATCAAGAATGACAATG | – | 1.18
93 | ATGAGCCAGACAAATGGAGGA | 1.24 | –
94 | ATGAGGAACTCTAAGTATCCC | 1.9 | –
95 | ATGATAAAATAGATTCTTATT | – | 0.815
96 | ATGATGAGCTACTGCACTACT | 1.04 | –
97 | ATGATGGAGGGGAAGATGATG | 2.73 | –
98 | ATGATGTTTTCCTATAATATA | 0.647 | –
99 | ATGATTCTGCCTCCAAGGATG | – | 2.01
100 | ATGATTCTGTAGTATGAATGT | – | 1.02
101 | ATGATTCTTTGTTACAGGCAC | 4.56 | –
102 | ATGCAATTAGTGTTTGAAAAG | – | 0.984
103 | ATGCACACAGCATCATCTTTG | 1.22 | –
104 | ATGCACACTCACCAGCAACAC | – | 2.24
105 | ATGCACCCCCAAACATGGAAA | – | 2.86
106 | ATGCAGAAAGCACAGAAAGGA | – | 2.6
107 | ATGCAGAAGATGTAGATTGTG | – | 1.05
108 | ATGCAGAGGATGAAAGATTAA | – | 0.859
109 | ATGCATATCCTGAGCCATCGG | 10.3 | –
110 | ATGCATTTGAGGTCAAGTAAG | 2.73 | –
